In all, about 33,000 sequences were measured (“E-score (-0.5 to 0.5)”: median about -0.017, highest 2% from about 0.3 on). This is one part of the list.
The sequences below were run against T1, Sut1 (UniProt P53032) (assay: PBM E-score (8-mer binding enrichment) (E-score (-0.5 to 0.5)); higher = stronger / more preferred TF binding; most listed sequences are background and not binding sites). Details: protein concentration: 200 nM; construct: GST-full length.
T1 sequence: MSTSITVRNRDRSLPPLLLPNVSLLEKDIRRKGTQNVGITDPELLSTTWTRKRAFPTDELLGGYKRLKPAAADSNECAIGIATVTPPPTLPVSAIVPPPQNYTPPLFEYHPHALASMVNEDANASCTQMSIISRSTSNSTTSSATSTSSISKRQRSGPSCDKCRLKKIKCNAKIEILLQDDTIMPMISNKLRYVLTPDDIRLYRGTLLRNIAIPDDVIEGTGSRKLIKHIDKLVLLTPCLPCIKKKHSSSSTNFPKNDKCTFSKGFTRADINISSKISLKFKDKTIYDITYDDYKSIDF
How it was run: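 Yeast transcription factors carrying a GST tag, as full-length proteins or DNA-binding domains, were produced by PURExpress in vitro transcription/translation. About 100-200 nM protein was applied to universal all-10-mer Agilent arrays, double-stranded by primer extension on fresh or once-stripped slides. Bound protein was detected with fluorescent anti-GST, and scans were normalised with masliner. The Universal PBM Analysis Suite gave each ungapped eight-base word, pooled with its reverse complement, an E-score, a modified Wilcoxon-Mann-Whitney statistic.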
With ACTGGACA the “PBM E-score” value was -0.153.
ACGTGACA was tested, and the “PBM E-score” value was -0.102.
For AGAAACCT, the “PBM E-score” value was 0.149.
GTCCGTCA was tested, and the “PBM E-score” value was 0.253.
For AGCGTCTA, the “PBM E-score” value was -0.177.
For ACACCGAA, the “PBM E-score” value was 0.122.
In the case of CAGCGTTC, the “PBM E-score” value is reported as -0.109.
For GCATGGAA, the “PBM E-score” value was -0.153.
With AATGTATA the “PBM E-score” value was 0.298.
With GACCGACA the “PBM E-score” value was -0.0292.
In the case of GCAATAAC, the “PBM E-score” value is reported as 0.0512.
GCTTTATA was tested, and the “PBM E-score” value was -0.0119.
For AATCGTAC, the “PBM E-score” value was 0.135.
For AATAGGAC, the “PBM E-score” value was 0.0787.
For ATAGTATA, the “PBM E-score” value was 0.174.
For AAAATGGA, the “PBM E-score” value was 0.183.
In the case of CTTCAAAA, the “PBM E-score” value is reported as 0.188.
With CAGTCAGC the “PBM E-score” value was 0.0209.
With CATGTACG the “PBM E-score” value was -0.00936.
For GAATCGAA, the “PBM E-score” value was 0.131.
ACTCAATA was tested, and the “PBM E-score” value was 0.25.
With GAGGACGA the “PBM E-score” value was 0.0235.
With ACACCTCG the “PBM E-score” value was -0.103.
In the case of CTCCCTGC, the “PBM E-score” value is reported as -0.276.
ATTGCACG was tested, and the “PBM E-score” value was -0.0293.
AATTAGTA was tested, and the “PBM E-score” value was 0.272.
For AGTCTCTA, the “PBM E-score” value was -0.121.
For CGAAGAAC, the “PBM E-score” value was 0.115.
For CTCAGTTA, the “PBM E-score” value was -0.0295.
CCGGTAGC was tested, and the “PBM E-score” value was -0.205.
For CTCTCTCC, the “PBM E-score” value was -0.086.
With CGGTCGAG the “PBM E-score” value was -0.311.
GTGCGAGA was tested, and the “PBM E-score” value was -0.142.
In the case of TGATGAAA, the “PBM E-score” value is reported as 0.149.
In the case of GCAGGAAA, the “PBM E-score” value is reported as -0.129.
TCATTGGA was tested, and the “PBM E-score” value was -0.0841.
With CTCATTAA the “PBM E-score” value was 0.119.
With CCCTATGA the “PBM E-score” value was -0.118.
With CCATTGCG the “PBM E-score” value was -0.257.
For ATAAGCAA, the “PBM E-score” value was 0.0892.
TGAGTACA was tested, and the “PBM E-score” value was 0.0972.
With TGAGACAA the “PBM E-score” value was 0.0653.
For AAGGCACT, the “PBM E-score” value was -0.237.
GAACCATA was tested, and the “PBM E-score” value was 0.0953.
In the case of CCTTGAAA, the “PBM E-score” value is reported as 0.0379.
ATGCGGTG was tested, and the “PBM E-score” value was -0.305.
With GAGCAACC the “PBM E-score” value was 0.0801.
In the case of GGCTGTGA, the “PBM E-score” value is reported as -0.208.
For CGAACGGC, the “PBM E-score” value was 0.0885.
In the case of ATTGAATA, the “PBM E-score” value is reported as 0.315.
ATTAGACG was tested, and the “PBM E-score” value was 0.0981.
ATCCACAG was tested, and the “PBM E-score” value was -0.0799.
ATTATGAG was tested, and the “PBM E-score” value was 0.0109.
AACGAGGC was tested, and the “PBM E-score” value was -0.11.
AAAGTTGT was tested, and the “PBM E-score” value was 0.201.
For AGTAGGGG, the “PBM E-score” value was -0.0998.
With AGTCTTCA the “PBM E-score” value was 0.0813.
With GATTGCCA the “PBM E-score” value was -0.138.
With CTGCGTTA the “PBM E-score” value was -0.0718.
AACCAAAT was tested, and the “PBM E-score” value was 0.165.
ATAGACAT was tested, and the “PBM E-score” value was -0.0466.
CTTCGGCC was tested, and the “PBM E-score” value was -0.00176.
For GCATGACA, the “PBM E-score” value was -0.0823.
In the case of GGAGACCC, the “PBM E-score” value is reported as 0.0368.
CGGCTGCC was tested, and the “PBM E-score” value was 0.0258.
With GATTTAGC the “PBM E-score” value was 0.0679.
In the case of TCCAGTCA, the “PBM E-score” value is reported as -0.0307.
For ACGGGCCG, the “PBM E-score” value was -0.158.
AGGATGTG was tested, and the “PBM E-score” value was -0.0478.
With ATTTACTC the “PBM E-score” value was 0.222.
In the case of TAAACCAA, the “PBM E-score” value is reported as 0.219.
For AGCGTAAT, the “PBM E-score” value was 0.0798.
AGGTCGGA was tested, and the “PBM E-score” value was 0.316.
With CATGTATC the “PBM E-score” value was 0.195.
In the case of TGCTTAAA, the “PBM E-score” value is reported as 0.225.
For GCCCTTCA, the “PBM E-score” value was -0.0436.
In the case of CGGTATCA, the “PBM E-score” value is reported as 0.0143.
In the case of CCAACGGG, the “PBM E-score” value is reported as -0.0283.
With AGAACATG the “PBM E-score” value was 0.0018.
With GACGTCCC the “PBM E-score” value was -0.122.
For CTTATCTA, the “PBM E-score” value was 0.183.
With ATGCGAAA the “PBM E-score” value was 0.107.
For ATAAGTAG, the “PBM E-score” value was 0.0173.
For AGTGGGAC, the “PBM E-score” value was -0.122.
For ACACAGGT, the “PBM E-score” value was -0.184.
With CACAAGGG the “PBM E-score” value was -0.179.
For AGGTGGCC, the “PBM E-score” value was -0.208.
For AATGAAGA, the “PBM E-score” value was 0.0727.
In the case of AGATGCCA, the “PBM E-score” value is reported as -0.102.
In the case of GGCCCGCA, the “PBM E-score” value is reported as -0.113.
CCTTCCAG was tested, and the “PBM E-score” value was -0.179.
With AGCCGCGC the “PBM E-score” value was -0.0974.
With CCATGACC the “PBM E-score” value was -0.322.
For AGAGCGTG, the “PBM E-score” value was -0.133.
For AATTACGA, the “PBM E-score” value was 0.19.
For CCTTGACG, the “PBM E-score” value was -0.177.
With GAGTCTTA the “PBM E-score” value was -0.129.
In the case of GGTCTCCA, the “PBM E-score” value is reported as -0.16.
With ATGTCATA the “PBM E-score” value was 0.0566.
For CACACCAA, the “PBM E-score” value was 0.0492.
For GCCACCAA, the “PBM E-score” value was -0.0938.
TCGTCGAA was tested, and the “PBM E-score” value was -0.215.
In the case of AGCTTTTG, the “PBM E-score” value is reported as 0.068.
CTGCTCCA was tested, and the “PBM E-score” value was -0.154.
In the case of GTTCTAGA, the “PBM E-score” value is reported as 0.0772.
AGCTACCT was tested, and the “PBM E-score” value was -0.164.
TCTGGGAA was tested, and the “PBM E-score” value was -0.153.
ACTCGTCG was tested, and the “PBM E-score” value was -0.174.
TATTTTCA was tested, and the “PBM E-score” value was 0.146.
In the case of ATTGCGAG, the “PBM E-score” value is reported as -0.119.
For AATCGACA, the “PBM E-score” value was 0.187.
CCTAGTTC was tested, and the “PBM E-score” value was -0.0873.
With AAGTATAG the “PBM E-score” value was 0.0511.
In the case of CAATGCGG, the “PBM E-score” value is reported as 0.0624.
In the case of AGTACAAC, the “PBM E-score” value is reported as 0.0862.
In the case of CACTAGGG, the “PBM E-score” value is reported as -0.368.
With GGACACAC the “PBM E-score” value was -0.102.
For CGAGCGCG, the “PBM E-score” value was -0.00328.
In the case of ACTCAGGG, the “PBM E-score” value is reported as -0.227.
With AAACGGTC the “PBM E-score” value was -0.0718.
In the case of CCTATGGC, the “PBM E-score” value is reported as -0.194.
AGAATGGG was tested, and the “PBM E-score” value was -0.00215.
For CTCCTTGC, the “PBM E-score” value was -0.144.
For GGCCGAAA, the “PBM E-score” value was 0.195.
With AACGAAGA the “PBM E-score” value was 0.102.
In the case of AAAACGTG, the “PBM E-score” value is reported as 0.0522.
In the case of GCGGTAAC, the “PBM E-score” value is reported as 0.113.
With AAGATCGG the “PBM E-score” value was 0.111.
For GCCGCGCA, the “PBM E-score” value was -0.114.
In the case of ACTCAGGA, the “PBM E-score” value is reported as -0.0118.
GGCCGCAC was tested, and the “PBM E-score” value was -0.141.
With AATCCCGT the “PBM E-score” value was 0.149.
For TCGTAACA, the “PBM E-score” value was 0.103.
With GATGTAAA the “PBM E-score” value was 0.115.
AGGATCTA was tested, and the “PBM E-score” value was -0.204.
With ATTACGGA the “PBM E-score” value was 0.353.
With GGAAAAGA the “PBM E-score” value was 0.058.
With CACTAAAA the “PBM E-score” value was 0.22.
For CGTTAAAC, the “PBM E-score” value was 0.192.
With CCCTTAGC the “PBM E-score” value was -0.268.
In the case of GATCCGAA, the “PBM E-score” value is reported as 0.26.
In the case of AGAGGTAA, the “PBM E-score” value is reported as 0.108.
With TATGATCA the “PBM E-score” value was 0.0698.
For AGGGAAAC, the “PBM E-score” value was -0.0896.
With ATGGAACA the “PBM E-score” value was -0.203.
With AAAGGTAA the “PBM E-score” value was 0.109.
In the case of ATAACAAG, the “PBM E-score” value is reported as 0.21.
For CCTACAGG, the “PBM E-score” value was -0.255.
For CCAGCCCG, the “PBM E-score” value was -0.128.
TCTTTCCA was tested, and the “PBM E-score” value was -0.083.
In the case of ACTATCCG, the “PBM E-score” value is reported as 0.227.
In the case of GACTACGC, the “PBM E-score” value is reported as 0.0927.
In the case of CTCCGGAA, the “PBM E-score” value is reported as 0.442.
In the case of ATATTTGG, the “PBM E-score” value is reported as 0.0141.
For CGATGGAC, the “PBM E-score” value was -0.00486.
For AATTCAAC, the “PBM E-score” value was 0.274.
With GGGCAGAC the “PBM E-score” value was -0.347.
CACCGGCC was tested, and the “PBM E-score” value was -0.231.
For CTCACTGA, the “PBM E-score” value was -0.086.
With AATCGGCA the “PBM E-score” value was 0.107.
For CAAAAGAG, the “PBM E-score” value was 0.0171.
GGCAGTGA was tested, and the “PBM E-score” value was -0.158.
For GCGTACGC, the “PBM E-score” value was -0.11.
In the case of ACTTTCGA, the “PBM E-score” value is reported as 0.0968.
AAAAGTTA was tested, and the “PBM E-score” value was 0.208.
For CATGCCCA, the “PBM E-score” value was -0.306.
With ACGAAAGG the “PBM E-score” value was 0.0497.
In the case of CCCTAATC, the “PBM E-score” value is reported as -0.141.
For ACACTCAT, the “PBM E-score” value was 0.1.
In the case of ACGAAGTC, the “PBM E-score” value is reported as 0.0625.
In the case of GCGGCCGC, the “PBM E-score” value is reported as -0.199.
AGCGTGTG was tested, and the “PBM E-score” value was -0.0751.

Source: the supplement of paper PMC3334620
